Laboratory results taken from the supplement of paper PMC4604168 (melanoma cell lines).
Some of the results follow. Many values rest on one well or one pass, so single values are uncertain.

Legend:
Experiment in all cases: cell count relative to DMSO control; melanoma cells; higher = more viable cells
Details in all cases: library dose: standard library concentration; 72 h
[1] = tested on: G361
[2] = tested on: IPC-298
[3] = tested on: IST-MEL1
[4] = tested on: LB2518-MEL
[5] = tested on: LOXIMVI
[6] = tested on: MEL-HO
[7] = tested on: MZ2-MEL
[8] = tested on: MeWo
[9] = tested on: RPMI7951
[10] = tested on: RVH-421
[11] = tested on: SkMel28
[12] = tested on: SkMel2
[13] = tested on: SkMel30
[14] = tested on: SkMel5
[15] = tested on: UACC257
[16] = tested on: UACC62
[17] = tested on: WM115
[18] = tested on: WM1716
[19] = tested on: WM1745
[20] = tested on: WM3526
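Further: cells treated in 1,536-well plates, then fixed and DAPI-stained, with nuclei counted from automated high-throughput microscope images.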

Row | SMILES | cell count [1] | cell count [2] | cell count [3] | cell count [4] | cell count [5] | cell count [6] | cell count [7] | cell count [8] | cell count [9] | cell count [10] | cell count [11] | cell count [12] | cell count [13] | cell count [14] | cell count [15] | cell count [16] | cell count [17] | cell count [18] | cell count [19] | cell count [20]
1 | Nc1nc(F)nc2c1ncn2[C@@H]1O[C@H](CO)[C@@H](O)[C@@H]1O [fludarabine] + C=CCn1c(=O)c2cnc(Nc3ccc(N4CCN(C)CC4)cc3)nc2n1-c1cccc(C(C)(C)O)n1 [MK1775] (first compound 1 µM, partner dose 0.1 µM) | 56.4% | 59.5% | 59.8% | 52.6% | 80.3% | 59.6% | 97.6% | 67.6% | 22.4% | 75.5% | 2.49% | 1.59% | 27.5% | 37.2% | 33% | 46% | 58.7% | 72.5% | 41.7% | 25.9%
2 | CC(=O)O[C@@]12CO[C@@H]1C[C@H](O)[C@@]1(C)C(=O)[C@H](O)C3=C(C)[C@@H](OC(=O)[C@H](O)[C@@H](NC(=O)OC(C)(C)C)c4ccccc4)C[C@@](O)([C@@H](OC(=O)c4ccccc4)[C@H]21)C3(C)C [Docetaxel] + CC(=O)c1c(C)c2cnc(Nc3ccc(N4CCNCC4)cn3)nc2n(C2CCCC2)c1=O [palbociclib] (first compound 0.0005 µM, partner dose 0.2 µM) | 24.7% | 40% | 43.2% | 40.5% | 48.9% | 52.7% | 40.2% | 32.9% | 29.1% | 49.7% | 21.5% | 32.6% | 43.7% | 31.9% | 58.1% | 55.7% | 38.2% | 38.1% | 46.4% | 37.2%
3 | Nc1ccn([C@@H]2O[C@H](CO)[C@@H](O)C2(F)F)c(=O)n1 [gemcitabine] + COCC[n+]1c2c(n(Cc3cnccn3)c1C)C(=O)c1ccccc1C2=O [YM155] (first compound 0.002 µM, partner dose 0.002 µM) | 30.6% | 28.8% | 33.6% | 26.7% | 14.1% | 54.8% | 27.5% | 27.6% | 40.4% | 42% | 38.2% | 56.9% | 83.4% | 48.7% | 30.6% | 66.3% | 44.8% | 47.5% | 49.5% | 49.4%
4 | CC(=O)c1c(C)c2cnc(Nc3ccc(N4CCNCC4)cn3)nc2n(C2CCCC2)c1=O [palbociclib] + CC1(C)NC(=O)N(c2ccc([N+](=O)[O-])c(C(F)(F)F)c2)C1=O [nilutamide] (first compound 0.2 µM, partner dose 5 µM) | 59.5% | 79% | 83.4% | 55.8% | 77% | 70.8% | 86.6% | 56.4% | 52% | 52.2% | 33.3% | 51.3% | 65% | 35.7% | 61.6% | 56.7% | 43.1% | 35.6% | 59.4% | 45.2%
5 | CO[C@H]1C[C@@H]2CC[C@@H](C)[C@@](O)(O2)C(=O)C(=O)N2CCCC[C@H]2C(=O)O[C@H]([C@H](C)C[C@@H]2CC[C@@H](OCCO)[C@H](OC)C2)CC(=O)[C@H](C)/C=C(\C)[C@@H](O)[C@@H](OC)C(=O)[C@H](C)C[C@H](C)/C=C/C=C/C=C/1C [everolimus] + CO[C@@H]1[C@H](N(C)C(=O)c2ccccc2)C[C@H]2O[C@]1(C)n1c3ccccc3c3c4c(c5c6ccccc6n2c5c31)C(=O)NC4 [Midostaurin] (first compound 0.1 µM, partner dose 0.4 µM) | 38.7% | 60.2% | 72.4% | 51% | 54.2% | 58.3% | 54.4% | 46.6% | 50.9% | 82.4% | 43.1% | 49.1% | 74.5% | 46.8% | 60% | 59.1% | 44% | 52% | 50.1% | 75.8%
6 | CC(=O)O[C@@]12CO[C@@H]1C[C@H](O)[C@@]1(C)C(=O)[C@H](O)C3=C(C)[C@@H](OC(=O)[C@H](O)[C@@H](NC(=O)OC(C)(C)C)c4ccccc4)C[C@@](O)([C@@H](OC(=O)c4ccccc4)[C@H]21)C3(C)C [Docetaxel] + CN(c1ncccc1CNc1nc(Nc2ccc3c(c2)CC(=O)N3)ncc1C(F)(F)F)S(C)(=O)=O [PF562271] (first compound 0.0005 µM, partner dose 0.4 µM) | 15% | 38.2% | 34.9% | 42.3% | 78.2% | 41.8% | 33.5% | 23.7% | 17.5% | 36.2% | 20.6% | 25% | 37.8% | 22.8% | 55.1% | 32.8% | 30.9% | 29.1% | 20.7% | 36.3%
7 | Nc1nc(F)nc2c1ncn2[C@@H]1O[C@H](CO)[C@@H](O)[C@@H]1O [fludarabine] + Clc1ccc(Nc2nnc(Cc3ccncc3)c3ccccc23)cc1 [vatalanib] (first compound 1 µM, partner dose 10 µM) | 72.9% | 54% | 60.9% | 72.5% | 55% | 60.3% | 71.7% | 68.8% | 55% | 82.5% | 2.95% | 1.53% | 22.1% | 31.7% | 47.8% | 70.6% | 67.1% | 84.5% | 63.4% | 22.8%
8 | CC(=O)O[C@@]12CO[C@@H]1C[C@H](O)[C@@]1(C)C(=O)[C@H](O)C3=C(C)[C@@H](OC(=O)[C@H](O)[C@@H](NC(=O)OC(C)(C)C)c4ccccc4)C[C@@](O)([C@@H](OC(=O)c4ccccc4)[C@H]21)C3(C)C [Docetaxel] + Nc1ncn([C@H]2C[C@H](O)[C@@H](CO)O2)c(=O)n1 [decitabine] (first compound 0.0005 µM, partner dose 0.5 µM) | 14.6% | 38.9% | 39.5% | 35% | 48.6% | 37.2% | 38.4% | 25.8% | 29.7% | 90.7% | 15.6% | 22.8% | 62.5% | 38.2% | 61.2% | 57.5% | 34.7% | 33.5% | 41.8% | 36.4%
9 | CO[C@H]1C[C@@H]2CC[C@@H](C)[C@@](O)(O2)C(=O)C(=O)N2CCCC[C@H]2C(=O)O[C@H]([C@H](C)C[C@@H]2CC[C@@H](OCCO)[C@H](OC)C2)CC(=O)[C@H](C)/C=C(\C)[C@@H](O)[C@@H](OC)C(=O)[C@H](C)C[C@H](C)/C=C/C=C/C=C/1C [everolimus] + Cc1nc(Nc2ncc(C(=O)Nc3c(C)cccc3Cl)s2)cc(N2CCN(CCO)CC2)n1 [dasatanib] (first compound 0.1 µM, partner dose 0.02 µM) | 63.6% | 69% | 64.7% | 60.6% | 32.4% | 66.8% | 46.1% | 68.9% | 44.3% | 55.9% | 26.1% | 73.6% | 70.4% | 63.9% | 73.4% | 71.1% | 58.4% | 53.6% | 54.1% | 64.8%
10 | Nc1ncn([C@H]2C[C@H](O)[C@@H](CO)O2)c(=O)n1 [decitabine] + Clc1ccc(Nc2nnc(Cc3ccncc3)c3ccccc23)cc1 [vatalanib] (first compound 0.5 µM, partner dose 10 µM) | 59.4% | 41.6% | 64.2% | 57% | 27% | 55.1% | 45.4% | 51.8% | 40.4% | 200% | 54.1% | 56% | 62.4% | 45.8% | 64.6% | 53% | 50% | 62.4% | 20.8% | 58.7%
11 | Nc1ncn([C@H]2C[C@H](O)[C@@H](CO)O2)c(=O)n1 [decitabine] + COc1cc(Nc2ncc(F)c(Nc3ccc4c(n3)NC(=O)C(C)(C)O4)n2)cc(OC)c1OC [Tamatinib] (first compound 0.5 µM, partner dose 2 µM) | 69.4% | 62.9% | 47.3% | 65% | 17.8% | 59.4% | 76.4% | 61.2% | 24.1% | 77.8% | 61.4% | 74.7% | 87.2% | 40.5% | 78.2% | 59.9% | 55.4% | 51.3% | 33.6% | 63.4%
12 | CC(=O)c1c(C)c2cnc(Nc3ccc(N4CCNCC4)cn3)nc2n(C2CCCC2)c1=O [palbociclib] + C#Cc1cccc(Nc2ncnc3cc(OCCOC)c(OCCOC)cc23)c1 [erlotinib] (first compound 0.2 µM, partner dose 4 µM) | 55.3% | 44.3% | 68.3% | 50.9% | 82.3% | 59.7% | 30.2% | 46.5% | 64.8% | 94.9% | 31.4% | 54% | 47.4% | 55.2% | 93.8% | 39.6% | 55.7% | 45.9% | 59.1% | 62.7%
13 | Nc1ncn([C@H]2C[C@H](O)[C@@H](CO)O2)c(=O)n1 [decitabine] + OCCn1cc(-c2cnc3nnn(Cc4ccc5ncccc5c4)c3n2)cn1 [PF04217903] (first compound 0.5 µM, partner dose 5 µM) | 78.5% | 81.2% | 89.9% | 75.6% | 85.4% | 85.3% | 108% | 68.3% | 103% | 88.9% | 52% | 93.6% | 94.7% | 76.2% | 106% | 74.2% | 61.9% | 67.1% | 124% | 88.1%
14 | CO[C@H]1C[C@@H]2CC[C@@H](C)[C@@](O)(O2)C(=O)C(=O)N2CCCC[C@H]2C(=O)O[C@H]([C@H](C)C[C@@H]2CC[C@@H](OCCO)[C@H](OC)C2)CC(=O)[C@H](C)/C=C(\C)[C@@H](O)[C@@H](OC)C(=O)[C@H](C)C[C@H](C)/C=C/C=C/C=C/1C [everolimus] + Clc1ccc(Nc2nnc(Cc3ccncc3)c3ccccc23)cc1 [vatalanib] (first compound 0.1 µM, partner dose 10 µM) | 62.3% | 58.9% | 68.3% | 66.5% | 38.1% | 38.7% | 56.1% | 43.8% | 59.9% | 80.4% | 62.2% | 57.1% | 63.4% | 46.8% | 68.8% | 70.6% | 68% | 74.6% | 73% | 55.2%
